# In PubChem BioAssay AID1460 (National Center for Advancing Translational Sciences (NCATS), 2008):
# “And” between values parts separate entries of the source, which are not always exact repeats. Equal entries are not always repeated. Among all 270,000 compounds or so, about 5,800 (2.1%) were called active. The shares of active, inactive and inconclusive entries below differ from those in the screen. The call rests on the fitted dose curve; in most records, active means well fitted inhibition curve with a large enough effect; inconclusive means small, poorly fitted or top-dose-only effect; inactive means flat fitted curve, though single readings scatter. Where the call is inconclusive, the potency comes from a doubtful curve fit.
# Target: Microtubule-associated protein tau (Homo sapiens) (UniProt P10636)
# UniProt P10636, sequence (P10636 whole entry, looked up): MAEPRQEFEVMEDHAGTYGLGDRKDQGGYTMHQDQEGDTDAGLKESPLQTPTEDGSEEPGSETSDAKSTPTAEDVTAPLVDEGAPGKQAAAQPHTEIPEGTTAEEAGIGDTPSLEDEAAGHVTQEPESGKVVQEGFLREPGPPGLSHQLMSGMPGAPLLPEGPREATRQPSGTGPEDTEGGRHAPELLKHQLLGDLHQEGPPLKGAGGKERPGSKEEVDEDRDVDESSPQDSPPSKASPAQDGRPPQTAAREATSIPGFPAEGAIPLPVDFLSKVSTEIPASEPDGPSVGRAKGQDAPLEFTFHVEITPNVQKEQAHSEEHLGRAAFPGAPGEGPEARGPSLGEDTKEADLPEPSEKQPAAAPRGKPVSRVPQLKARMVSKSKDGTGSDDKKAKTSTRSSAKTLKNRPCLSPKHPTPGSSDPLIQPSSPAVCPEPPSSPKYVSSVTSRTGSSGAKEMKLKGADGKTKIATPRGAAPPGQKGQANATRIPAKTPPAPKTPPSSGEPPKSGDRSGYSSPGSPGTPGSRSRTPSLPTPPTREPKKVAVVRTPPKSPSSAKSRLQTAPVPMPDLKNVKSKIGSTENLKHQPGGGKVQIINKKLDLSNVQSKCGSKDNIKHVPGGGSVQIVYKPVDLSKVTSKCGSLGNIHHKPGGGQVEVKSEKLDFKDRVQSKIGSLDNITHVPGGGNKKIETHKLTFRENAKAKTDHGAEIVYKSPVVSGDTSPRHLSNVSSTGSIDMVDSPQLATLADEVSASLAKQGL
# Assay: qHTS for Inhibitors of Tau Fibril Formation, Thioflavin T Binding; further: nearly all actives have a fitted effect of over 55% in size
# Settings: recombinant tau K18 P301L, heparin-induced fibrillization, ThT fluorescence; series mostly up to 57.4 µM
# Summary of the method: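 Using a mix of unlabeled (15 uM) and Alexa 594-labeled (0.24 uM) tau K18 P301L, heparin-triggered fibrillization over 6 hr at 37 C was scored by ThT fluorescence.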
# Potency means the concentration at half of the fitted maximal effect; tags describe the fitted curve by direction and shape.
row,Compound,Potency
1,COc1ccccc1N1CCN(c2nc(C)nc3c2oc2ccccc23)CC1,"inconclusive: 15.8 µM [inhibitor, partial curve]"
2,CCC1=C/C(=C\c2ccc3c(c2)OCO3)C(=O)S1,active: 15.8 µM
3,CC(/C=C/c1ccccc1)=N\NC(N)=S,"inconclusive: 20 µM [inhibitor, partial curve]"
4,COc1ccc(C(=O)NCCn2ccc3ccccc32)cc1,inactive
5,CCCCOc1cccc(C(=O)N2CCN(CCc3ccncc3)CC2)c1,inactive
6,COCCNC(=S)Nc1cccc2cnccc12,inactive
7,Cc1ccc(C(=O)CSc2nnc(COc3ccccc3)o2)cc1,"inconclusive: 7.08 µM [inhibitor, partial curve]"
8,C=CCOC(=O)C1=C(C)NC2(O)c3ccccc3C(=O)C12O (stereo not given),active: 12.6 µM
9,Cc1cc(O)ccc1-c1cnc2ccccc2n1,"inconclusive: 20 µM [inhibitor, partial curve]"
10,COc1ccc2c(c1)C(C)=CC(C)(C)N2C(=O)CNCc1ccc2c(c1)OCO2,inactive
11,O=C(O)c1cc(N/N=C/c2ccc(OCc3ccccc3)cc2)ccc1Cl,inactive
12,COC(=O)c1c(NC(=O)COc2cccc(C(F)(F)F)c2)sc2c1CCCC2,inactive
13,NC(=O)CSc1nnc(Cc2csc(Nc3ccc(F)cc3)n2)n1Cc1ccccc1,"inconclusive: 28.2 µM [inhibitor, single point]"
14,Cc1cccc(C(=O)N(Cc2ccccc2F)C2CCS(=O)(=O)C2)c1 (stereo not given),inactive
15,Cc1ccc(/C=N/Nc2ccnc3cc(Cl)ccc23)c(C)c1,"inconclusive: 2.51 µM [inhibitor, full curve]"
16,C=CCN1C=C2C(=O)C(C)(OC(=O)CCC(=O)OC)C(=O)C=C2C=C1C1CC1 (stereo not given),"inconclusive: 10 µM [inhibitor, partial curve] and inconclusive: 3.16 µM [inhibitor, single point]"
17,COc1ccc(N2CCN(C(=O)c3cnn(-c4ccc(OC)cc4)c3C3CCN(C(=O)OC(C)(C)C)CC3)CC2)cc1,"inconclusive: 5.01 µM [inhibitor, single point]"
18,CCOC(=O)c1c(NC(=O)CSc2nnc(CNc3ccc(C)cc3C)o2)sc(C)c1C,"inconclusive: 17.8 µM [inhibitor, partial curve]"
19,COc1ccccc1/C=N/NC(=O)c1ccc(NC(=O)c2cccc([N+](=O)[O-])c2)cc1,"inconclusive: 7.08 µM [inhibitor, partial curve]"
20,COc1ccc(/C(C)=C(\C#N)C(=O)OC(C)C)cc1OC,inactive
21,Cc1ccc(C(=O)N2CCCCC2CCN2CCCCC2)cc1 (stereo not given),inactive
22,O=C(COC(=O)c1n[nH]c2ccccc12)c1cc(F)ccc1F,"inconclusive: 35.5 µM [inhibitor, single point]"
23,c1ccc2c(c1)nc(Nc1ccc3c(c1)OCO3)c1nnnn12,"inconclusive: 14.1 µM [inhibitor, partial curve]"

row,Compound,Potency
1,COC(=O)CSc1nc2ccc(N)cc2s1,"inconclusive: 25.1 µM [inhibitor, partial curve]"
2,O=[N+]([O-])CC(=Nc1ccc(Cl)cc1)N/N=C\c1oc(O)c2ccccc12,"inconclusive: 28.2 µM [inhibitor, partial curve]"
3,Nc1c(C(=O)c2ccccc2)sc2nsc(SCCN3CCCC3)c12,active: 15.8 µM
4,CCn1c(SCC(=O)Nc2c(C)cccc2C)nnc1-c1nonc1NC(C)=O,inactive
5,Cc1ccccc1NC(=O)c1c(C)nc(SCC(=O)OCc2ccccc2)c(C#N)c1-c1ccc(F)cc1,inactive
6,C=CC1=C2C=C(C3CC3)N(Cc3ccc4c(c3)OCO4)C=C2C(=O)C(C)(OC(=O)c2ccco2)C1=O (stereo not given),"inconclusive: 8.91 µM [inhibitor, single point]"
7,C=CCNC(=S)NNC(=O)c1ccc([N+](=O)[O-])cc1,"inconclusive: 20 µM [inhibitor, single point]"
8,Cc1ccc(CCNC(=O)CN(c2ccc(C(C)C)cc2)S(=O)(=O)c2c(C)nn(C)c2C)cc1,inactive
9,CN(C)c1ccc(C(CNS(=O)(=O)c2ccc(F)cc2F)N2CCOCC2)cc1 (stereo not given),"inconclusive: 44.7 µM [inhibitor, single point]"
10,Oc1ccccc1C1CC(c2cccs2)=NC(c2cccc(Br)c2)N1 (stereo not given),"inconclusive: 28.2 µM [inhibitor, partial curve]"
11,CCc1ccc(CN(Cc2cn[nH]c2-c2ccc(OC)cc2)C(=O)Nc2ccc(Br)cc2)cc1,"inconclusive: 25.1 µM [inhibitor, single point]"
12,COc1ccc(-c2csc(N=C(N)N)n2)cc1,"inconclusive: 17.8 µM [inhibitor, partial curve]"
13,O=[N+]([O-])c1ccc(CSc2ncnc3c2ncn3[C@@H]2O[C@H](CO)[C@H](O)[C@H]2O)cc1,inactive
14,COc1ccc(-c2ccc(-c3cc(=O)oc4cc(OC)c(OC)c(OC)c34)cc2)cc1OC,inactive
15,Cc1cc(S(=O)(=O)Nc2ccc(O)c(Sc3nc4ccccc4s3)c2)ccc1Cl,"inconclusive: 28.2 µM [inhibitor, partial curve]"
16,O=C(Nc1cccc(C(F)(F)F)c1)Nc1ccc2snnc2c1,inactive
17,CC(=O)Oc1ccc(C(=O)Cc2ccccn2)c(O)c1,"inconclusive: 28.2 µM [inhibitor, partial curve]"
18,O=C(O)c1ccc2c3c(ncnc13)-c1ccccc1C2=O,"inconclusive: 20 µM [inhibitor, partial curve]"
19,COc1ccc(OC)c(CNC(=O)CSc2c3c(nc4cc(Cl)ccc24)CCCC3)c1,"inconclusive: 11.2 µM [inhibitor, partial curve]"
20,Cc1ccc(-c2csc(C(C#N)=C3CCCC3)n2)cc1,"inconclusive: 17.8 µM [inhibitor, single point]"
21,CCC(=O)Nc1nonc1-c1nc2ccccc2n1CCC(C)C,"inconclusive: 17.8 µM [inhibitor, partial curve]"
22,CCc1ccc(C(=O)N/N=C/c2cccc3ccccc23)nc1,"inconclusive: 5.01 µM [inhibitor, full curve]"
